# Results reported in the supplement of paper PMC3334620.
# Whole data set: some 33,000 sequences, median “E-score (-0.5 to 0.5)” near -0.021, cut for the highest 2% near 0.32. The list shows a part of the results.
# Target: T1, Zap1 (UniProt P47043)
# T1 sequence: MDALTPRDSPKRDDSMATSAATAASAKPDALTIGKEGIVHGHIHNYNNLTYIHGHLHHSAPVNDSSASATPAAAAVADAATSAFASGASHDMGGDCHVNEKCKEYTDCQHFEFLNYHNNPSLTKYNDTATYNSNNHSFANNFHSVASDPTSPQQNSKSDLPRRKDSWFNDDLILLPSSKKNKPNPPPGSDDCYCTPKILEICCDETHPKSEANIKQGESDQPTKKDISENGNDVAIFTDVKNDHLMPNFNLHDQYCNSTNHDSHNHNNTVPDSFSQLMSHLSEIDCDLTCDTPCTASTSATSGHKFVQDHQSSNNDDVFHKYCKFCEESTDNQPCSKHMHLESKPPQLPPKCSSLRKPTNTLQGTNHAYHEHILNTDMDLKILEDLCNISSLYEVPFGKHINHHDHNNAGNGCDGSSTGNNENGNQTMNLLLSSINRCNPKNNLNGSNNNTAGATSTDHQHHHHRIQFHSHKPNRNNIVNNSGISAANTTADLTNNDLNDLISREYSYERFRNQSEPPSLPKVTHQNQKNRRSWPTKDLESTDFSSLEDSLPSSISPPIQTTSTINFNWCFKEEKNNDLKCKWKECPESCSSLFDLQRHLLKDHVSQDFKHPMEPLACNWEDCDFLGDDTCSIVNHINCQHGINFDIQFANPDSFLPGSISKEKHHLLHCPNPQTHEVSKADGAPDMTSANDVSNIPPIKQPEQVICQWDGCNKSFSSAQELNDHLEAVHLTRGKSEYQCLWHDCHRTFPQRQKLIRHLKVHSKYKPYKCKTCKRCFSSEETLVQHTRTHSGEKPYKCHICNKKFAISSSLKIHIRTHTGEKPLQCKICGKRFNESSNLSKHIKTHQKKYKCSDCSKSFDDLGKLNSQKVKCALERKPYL
# Assay: PBM E-score (8-mer binding enrichment) (E-score (-0.5 to 0.5)); higher = stronger / more preferred TF binding; most listed sequences are background and not binding sites
# Settings: protein concentration: 200 nM; construct: GST-full length
# Protocol: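 Universal 'all 10-mer' protein binding microarrays (Agilent AMADID 015681) probed with GST-tagged S. cerevisiae TFs (full-length or DBD) made by in vitro transcription/translation (PURExpress), about 100-200 nM. Bound TF was detected with fluorescent anti-GST. Each ungapped 8-mer (which stands for itself and its reverse complement) is scored by the PBM enrichment score (E-score), a modified Wilcoxon-Mann-Whitney statistic from -0.5 to +0.5, computed with the Universal PBM Analysis Suite. Scale: above 0.35 generally sequence-specific binding.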
row,Sequence,PBM E-score
1,CTTCTACC,-0.0853
2,CCGATGTA,-0.0828
3,ATAGCCAC,-0.0328
4,ACATAGGC,-0.103
5,CCTCCGCG,0.0795
6,AGACCGTC,-0.0261
7,TATAGAAA,0.175
8,AAAGTACC,0.273
9,AATATCAG,-0.0392
10,ACTATAGT,0.197
11,GTTCGCAA,0.142
12,CTGCGGCC,-0.141
13,CTGCGGGC,-0.0989
14,CTGAAATA,0.0704
15,AACCTTCC,0.21
16,GCGTCACC,-0.0628
17,CAGAAACG,0.0804
18,ATCGAAAA,0.073
19,AAAGTTTA,0.144
20,TAATTACA,0.177
21,CGGGCGCA,-0.109
22,GATGAAAC,0.0977
23,ACCATACG,-0.0138
24,AGCGAATG,-0.275
25,AGCGGGGC,-0.162

row,Sequence,PBM E-score
1,AAGGCCTG,-0.218
2,GGTTTACA,0.17
3,AGTAACGC,0.0343
4,AAACATGC,0.158
5,ATTAGCTG,-0.0371
6,ATCCAAAA,0.188
7,GCTTCAGA,-0.167
8,GAACTAGC,-0.0962
9,CTCATGAG,0.111
10,CCATAAGA,0.0547
11,AACGTTTC,-0.0689
12,CAGTAAAG,0.105
13,GGTAGTGA,0.29
14,CGCAGAAA,-0.025
15,GGACGACA,0.0683
16,ATTGGCCC,-0.0946
17,CCGCGGAC,-0.0519
18,CACCAGCG,-0.23
19,ATACTACA,0.18
20,AACTTAAA,0.107
21,AATGAGAG,-0.104
22,AACACTGT,-0.00483
23,GACGGAAA,0.0423
24,CTTGCCCA,-0.169
25,AGTCAGTG,-0.124

row,Sequence,PBM E-score
1,AGGAAACC,0.272
2,ACACGGGG,-0.118
3,AGCAGCCT,-0.168
4,AAATTTCG,-0.0634
5,CCGTAAAA,0.271
6,GGGTAAAA,0.306
7,TCGTCTCA,-0.0937
8,CAGCAAAA,0.0634
9,CCCCCGCG,-0.11
10,GCATTCGA,-0.15
11,CTCTTACC,0.16
12,AAAGCTAC,-0.253
13,CACCAACG,-0.0632
14,CTCCTCTA,-0.143
15,ATCAGACC,-0.0972
16,GGAAGTCC,-0.15
17,GATGTAGC,-0.265
18,ATCGCAAC,0.151
19,AATGAGCT,-0.165
20,AATATGCA,-0.114
21,AAAGGCTC,0.0709
22,ACCTCTTA,0.274
23,TCTCACAA,0.00609
24,CTGATTCA,-0.158
25,CAGTTGGA,-0.004

row,Sequence,PBM E-score
1,ATCAAAAC,0.132
2,CGTCGATA,-0.091
3,GACTATCA,-0.0335
4,GAAGAGTC,-0.266
5,CCCTGATA,-0.0332
6,ATGTTAAA,0.0569
7,CATTGCCC,-0.156
8,ACGGATGG,-0.0981
9,GCCTCATA,-0.143
10,ACGAGGGC,-0.126
11,AGGGCGAG,-0.23
12,AGTAATCC,-0.121
13,ACTGGTCG,-0.123
14,GACAGCAA,-0.0348
15,CGGTAAAG,0.0257
16,ACGATCTA,-0.0931
17,CTGGACCC,0.0712
18,GATCGCAC,-0.131
19,ACTCAAGC,-0.19
20,CCACCACC,0.183
21,AATTGAAT,-0.00526
22,CGTGCACG,-0.14
23,CTACCACC,-0.129
24,GTGACCCA,0.389
25,ATCCGCGG,0.0629

row,Sequence,PBM E-score
1,CGACCACC,0.15
2,ATAATAGA,0.0295
3,GATGTTTA,-0.0174
4,AAGGTCCT,0.123
5,AGACAGGC,-0.153
6,ATACACGA,0.0189
7,CATACATA,0.11
8,AATCGAGT,-0.0147
9,AATAACGA,-0.036
10,CGATACCC,0.275
11,AGTGTTCG,0.0328
12,ATCTCTAA,-0.0316
13,CCTTACGA,-0.00084
14,TCATAACA,0.112
15,ATTTATCC,0.202
16,AGAACCCG,0.223
17,TAAAATTA,0.212
18,CACATAGA,-0.0537
19,GGCGTGGA,-0.316
20,ACAGATCA,0.0477
21,GAAATTAA,0.27
22,CACTCTCA,-0.078
23,GCATCAGC,-0.161
24,TCCCAAAA,0.17
25,TAGCATCA,0.0756

row,Sequence,PBM E-score
1,AATCTAGC,-0.226
2,CTCCGTTC,-0.164
3,CACAGACC,0.153
4,CAAGCAGG,0.02
5,CGTCTCGC,-0.294
6,AGCAACTC,-8e-05
7,ACGGCCAA,-0.0636
8,AATCTGAA,-0.0699
9,AAGCAATT,0.0249
10,AGATGTGA,-0.0251
11,GCATTTTA,0.183
12,TATGAAGA,0.0198
13,CGTGTGAG,-0.0199
14,CATCGACC,-0.0318
15,GAATGATA,0.158
16,ACGGCACT,0.0741
17,AAAACTCA,0.124
18,CCGTCCTA,-0.24
19,ACAGCTAT,-0.073
20,CAGTGACG,-0.0109
21,GCTGTTAA,0.0474
22,ACGCGTTG,-0.0853
23,ATCGGGTA,0.174
24,TACATCGA,0.0772
25,CTTACGCC,-0.171

row,Sequence,PBM E-score
1,CCAGTTCG,0.156
2,AGGAATCC,-0.0232
3,GCCTAAAA,0.142
4,CCTGCGCA,-0.222
5,GTACCAAC,0.204
6,ATCGAAAC,0.0832
7,CAGGCCCA,-0.235
8,ACGCTGAC,-0.0646
9,AGAGGCCC,-0.108
10,ATTTTATC,0.154
11,AGCGATTC,-0.127
12,GAGGTTAA,0.429
13,GCCAACCC,0.109
14,ACTCCTTG,0.0145
15,ACGCTACC,-0.0555
16,AAATACGA,0.0646
17,CCATAGTA,0.213
18,AGTGAACG,0.0023
19,CTGCTACC,0.0661
20,ATCGTGAC,0.176
21,GCTTAGTA,-0.0005
22,ATTCTCGA,0.111
